Reference: PubChem BioAssay (Tox21)
Several values for one entry are separate records, joined by “and”; a condition that tells them apart may be missing. Equal values may be shown once. Inconclusive results, whose numbers are uncertain, are shown with a selection of clear calls. A potency beside an inconclusive call is a rough fit, not a confirmed value. Activity calls are given as the source filed them. Unless noted, calls follow the shape of the dose curve; as a rule, active = well fitted curve in the direction sought with a large enough effect in the repeat runs; inconclusive = weak or mixed curves; inactive = no such curve, though single readings can be large; an effect the other way counts as inactive or inconclusive.

Tests used:
[1] = qHTS assay for small molecule agonists of the p53 signaling pathway (AID 651631; calls by dose curve; also: nearly all actives have a fitted effect of over 15% in size; as to activation: % is scaled to controls: 0 for no effect and ±100 for the full control effect); conditions: HCT-116 p53RE-bla reporter, beta-lactamase FRET ratio, 16 h; activation: at 73.3 µM (top of the series) unless noted
Method in brief: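 Agonist mode screen using a stably integrated beta-lactamase gene under p53 response elements in HCT-116 cells. Compound exposure lasts 16 h at 37 °C; fluorescence intensity is measured following 2 h FRET substrate loading.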

[2] = qHTS assay for small molecule disruptors of the mitochondrial membrane potential - cell viability (AID 720634; calls by dose curve; also: nearly all actives have a fitted effect of over 20% in size;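 as to activity change, negative = cytotoxicity: human HepG2 liver cancer cells; % is scaled to controls: 0 for no effect and ±100 for the full control effect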)
Method in brief: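 Cytotoxicity was measured by ATP quantitation in HepG2 wells that had first been treated with compound for 1 hr and stained with m-MPI dye; CellTiter-Glo incubation was 30 min at room temperature.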

[3] = qHTS assay for small molecule disruptors of the mitochondrial membrane potential (AID 720635); conditions: HepG2 mitochondrial membrane potential, Mito-MPS dye ratio; ratio activity, negative = MMP loss: at 83.2 µM (top of the series) unless noted; as to ratio activity, negative = MMP loss: % is scaled to controls: 0 for no effect and ±100 for the full control effect
Method in brief: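 Mitochondrial membrane potential tracked with Mito-MPS dye, red aggregates (ex 540/em 590 nm) against green monomers (ex 490/em 535 nm). Compound treatment 1 hr at 37C, dye 30 min in HepG2.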

[4] = biological target: Glucocorticoid receptor (Homo sapiens) (UniProt P04150); assay: qHTS assay to identify small molecule antagonists of the glucocorticoid receptor (GR) signaling pathway (AID 720692; active = well fitted inhibition curve with a large enough effect in the signal ratio in the repeat runs, not every such curve was filed as active; inconclusive = weak or mixed curves, or effect the other way; inactive = no such curve, though single readings can be large or run the other way; the % refers to the signal ratio; as to activity change, negative = inhibition: % is scaled to controls: 0 for no effect and ±100 for the full control effect); conditions: GR-bla HeLa, beta-lactamase FRET ratio, dexamethasone-stimulated, 18 h; activity change, negative = inhibition: at 58.5 µM (top of the series) unless noted
Method in brief: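 Antagonism was scored as loss of dexamethasone-driven (5 nM final) reporter signal in HeLa cells bearing a glucocorticoid response element–beta-lactamase construct, after 18 h compound exposure at 37 C and 2 h FRET substrate loading.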

[5] = qHTS assay for identifying genotoxic compounds that show differential cytotoxicity against isogenic chicken DT40 cell lines with known DNA damage response pathways - wild type cell line (AID 743012); conditions: DT40 wild type chicken cells viability, CellTiter-Glo, 40 h; activity change, negative = cytotoxicity: at 68.4 µM (top of the series) unless noted; also: nearly all actives have a fitted effect of over 60% in size
Method in brief: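 Cytotoxicity in repair-proficient parental chicken DT40 cells serves as the comparator for Rad54/Ku70- and Rev3-deficient lines. Cells were exposed to compounds for 40 h at 37 C/5% CO2, and ATP-based luminescence (CellTiter-Glo) measured viability.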

[6] = qHTS assay to identify small molecule antagonists of the androgen receptor (AR) signaling pathway - cell viability counter screen (AID 743033; also: nearly all actives have a fitted effect of over 45% in size); conditions: AR-bla HEK293 viability, CellTiter-Glo luminescence, 16 h; activity change, negative = cytotoxicity: at 58.5 µM (top of the series)
[7] = qHTS assay to identify small molecule antagonists of the glucocorticoid receptor (GR) signaling pathway - cell viability counter screen (AID 720693); conditions: GR-bla HeLa viability, CellTiter-Glo luminescence, 18 h, with 5 nM dexamethasone present; viability change, negative = cytotoxic: at 58.5 µM (top of the series) unless noted; also: nearly all actives have a fitted effect of over 55% in size
[8] = qHTS assay for identifying genotoxic compounds that show differential cytotoxicity against isogenic chicken DT40 cell lines with known DNA damage response pathways - Rev3 mutant cell line (AID 743014); conditions: chicken DT40 Rev3-/- viability, CellTiter-Glo, 40 h; activity, negative = cytotoxicity: at 68.4 µM (top of the series); also: nearly all actives have a fitted effect of over 55% in size
[9] = qHTS assay for identifying genotoxic compounds that show differential cytotoxicity against isogenic chicken DT40 cell lines with known DNA damage response pathways - Rad54/Ku70 mutant cell line (AID 743015); conditions: DT40 Rad54/Ku70 mutant viability, CellTiter-Glo, 40 h; activity change, negative = cytotoxicity: at 66.8 µM (top of the series); also: nearly all actives have a fitted effect of over 60% in size
[10] = biological target: Glucocorticoid receptor (Homo sapiens) (UniProt P04150); assay: qHTS assay to identify small molecule agonists of the glucocorticoid receptor (GR) signaling pathway (AID 720691; active = well fitted activation curve with a large enough effect in the signal ratio in the repeat runs, not every such curve was filed as active; inconclusive = weak or mixed curves, or effect the other way; inactive = no such curve, though single readings can be large or run the other way; the % refers to the signal ratio); conditions: GR-bla HeLa, beta-lactamase reporter ratio, 18 h; activation: at 62.4 µM (top of the series) unless noted
Method in brief: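 Steps: seed GR-bla HeLa cells, incubate 4 h at 37 C/5% CO2; pin-transfer DMSO-dissolved compounds; incubate 18 h at 37 C; add LiveBLAzer B/G FRET substrate; after 2 h at room temperature, measure fluorescence.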
Potency is read from the fitted curve at half-maximal effect; tags tell the direction and shape of the fitted curve or compound fluorescence and quenching.

UniProt P04150, sequence (P04150 whole entry, looked up): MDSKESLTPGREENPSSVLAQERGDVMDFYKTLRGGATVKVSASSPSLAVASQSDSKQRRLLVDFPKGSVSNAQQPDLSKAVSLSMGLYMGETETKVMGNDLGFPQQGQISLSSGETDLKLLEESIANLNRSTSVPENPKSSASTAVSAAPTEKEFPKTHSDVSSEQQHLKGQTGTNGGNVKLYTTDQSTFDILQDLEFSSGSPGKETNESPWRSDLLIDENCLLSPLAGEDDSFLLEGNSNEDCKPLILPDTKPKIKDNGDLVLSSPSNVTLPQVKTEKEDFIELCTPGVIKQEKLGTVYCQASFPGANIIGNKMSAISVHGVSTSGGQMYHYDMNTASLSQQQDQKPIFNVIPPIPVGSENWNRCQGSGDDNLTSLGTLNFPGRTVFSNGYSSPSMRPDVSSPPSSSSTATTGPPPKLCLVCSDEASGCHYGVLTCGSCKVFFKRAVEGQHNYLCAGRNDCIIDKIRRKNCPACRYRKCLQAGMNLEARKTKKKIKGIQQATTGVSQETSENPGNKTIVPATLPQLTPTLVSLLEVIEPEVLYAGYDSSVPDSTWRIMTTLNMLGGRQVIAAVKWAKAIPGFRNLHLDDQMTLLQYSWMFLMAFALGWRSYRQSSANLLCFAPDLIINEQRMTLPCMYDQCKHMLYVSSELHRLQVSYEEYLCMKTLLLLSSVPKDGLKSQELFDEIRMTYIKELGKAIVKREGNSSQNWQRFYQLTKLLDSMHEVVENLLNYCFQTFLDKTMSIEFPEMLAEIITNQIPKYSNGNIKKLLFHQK

Oc1cc(Cl)cc(Cl)c1
Potency [1]: inconclusive: 61.8 µM [falling, single point]
Potency [2]: inconclusive: 30.9 µM [cytotoxic, partial curve, poor fit]
Potency [3]: active: 9.79 µM
Potency [4]: inactive
Potency [5]: inconclusive: 69.3 µM [cytotoxic, single point]
Potency [6]: inconclusive: 62.3 µM [cytotoxic, partial curve, poor fit]

CCN1CCC2(CC1)COc1cc3c(cc12)N(C(=O)c1ccc(-c2ccc(-c4nnc(C)o4)cc2C)cc1)CC3
Potency [1]: inconclusive: 63.3 µM [cytotoxic]
Potency [2]: inconclusive: 71 µM [cytotoxic, single point]
Potency [7]: inconclusive: 56.9 µM [cytotoxic, single point]
Potency [8]: active: 1.42 µM

O=C(Nc1ccccc1-c1ccc(Cl)cc1)c1cccnc1Cl
Potency [1]: inconclusive: 77 µM [activator, single point]
Potency [2]: inconclusive: 57.8 µM [cytotoxic, partial curve, poor fit]
Potency [3]: inconclusive: 64.8 µM
activity change, negative = inhibition [4]: inconclusive: -2.52% [at 78.9 µM]
Potency [7]: inconclusive: 51.9 µM [cytotoxic, single point]
Potency [5]: active: 57.8 µM

C=CCC1=C(C)[C@@H](OC(=O)[C@@H]2[C@@H](C=C(C)C)C2(C)C)CC1=O
Potency [1]: inconclusive: 68.6 µM [cytotoxic, single point]
Potency [2]: active: 61.1 µM
Potency [3]: active: 15.4 µM
Potency [4]: active: 49 µM
Potency [7]: inconclusive: 54.9 µM [cytotoxic, single point]
Potency [9]: active: 15.4 µM

O=[N+]([O-])c1c(Cl)c(Cl)cc(Cl)c1Cl
Potency [1]: inconclusive: 6.11 µM [rising, partial curve, poor fit]
Potency [2]: inconclusive: 68.6 µM [cytotoxic, partial curve, poor fit]
Potency [7]: inconclusive: 24.5 µM [rising, partial curve, poor fit]
Potency [5]: inconclusive: 1.22 µM [rising, full curve]
Potency [8]: inconclusive: 34.4 µM [cytotoxic]
Potency [9]: inconclusive: 46.7 µM [cytotoxic]

COC12CC[C@@]3(C[C@@H]1C(C)(O)C(C)(C)C)[C@H]1Cc4ccc(O)c5c4[C@@]3(CCN1CC1CC1)[C@H]2O5 (stereo partly drawn)
Potency [1]: inconclusive: 60.7 µM [cytotoxic]
Potency [2]: active: 54.1 µM
Potency [3]: active: 19.2 µM
Potency [10]: inconclusive: 54.6 µM [cytotoxic, single point]
Potency [4]: inconclusive: 54.6 µM [cytotoxic]
Potency [7]: inconclusive: 54.6 µM [cytotoxic, single point]
Potency [6]: active: 54.6 µM

CC(C)CC(C)(c1ccc(O)cc1)c1ccc(O)cc1
Potency [1]: inconclusive: 61.3 µM [cytotoxic, partial curve] and inconclusive: 54.5 µM [cytotoxic, partial curve]
Potency [2]: active: 34.4 µM and active: 27.3 µM
Potency [4]: active: 19.5 µM
Potency [7]: inconclusive: 61.8 µM [cytotoxic, single point] and active: 49 µM
Potency [5]: inconclusive: 68.7 µM [cytotoxic, single point]
Potency [9]: inconclusive: 21.7 µM [cytotoxic]
Potency [6]: active: 55.1 µM and inconclusive: 43.6 µM [cytotoxic, partial curve]

CNC(=O)Oc1ccccc1C1OCCO1
Potency [1]: inactive
Potency [2]: inactive
Potency [3]: inconclusive: 24.2 µM [activator, partial curve, poor fit]
Potency [4]: inactive

Cn1cc(C2=C(c3cn(C4CCN(Cc5ccccn5)CC4)c4ccccc34)C(=O)NC2=O)c2ccccc21
Potency [1]: active: 7.5 µM
Potency [2]: inactive
Potency [3]: inactive
Potency [10]: inconclusive: 1.69 µM
Potency [4]: active: 1.34 µM
Potency [6]: inactive

CCC[CH2][Sn]([Cl])([CH2]CCC)[CH2]CCC
Potency [1]: inconclusive: 612 nM [cytotoxic, full curve] and inconclusive: 1.54 µM [cytotoxic, full curve]
Potency [2]: active: 1.73 µM and active: 4.86 µM
Potency [3]: active: 61.3 nM and active: 122 nM
Potency [10]: inconclusive: 1.95 µM [cytotoxic, full curve] and inconclusive: 1.38 µM [cytotoxic, full curve]
Potency [4]: inconclusive: 1.38 µM [cytotoxic, full curve] and inconclusive: 2.19 µM [cytotoxic, full curve]
Potency [7]: active: 1.1 µM
